The whole screen tested about 310,000 compounds, of which about 2,200 (0.71%) showed an effect of 50% or more. The effect is printed as a negative number. The list shows a part of the results.
molecular target: human ether-à-go-go-related gene (hERG) potassium channel (human, UniProt Q12809); assay: primary screen, population patch clamp on CHO cells stably expressing hERG
Sequence (Q12809 whole entry, looked up): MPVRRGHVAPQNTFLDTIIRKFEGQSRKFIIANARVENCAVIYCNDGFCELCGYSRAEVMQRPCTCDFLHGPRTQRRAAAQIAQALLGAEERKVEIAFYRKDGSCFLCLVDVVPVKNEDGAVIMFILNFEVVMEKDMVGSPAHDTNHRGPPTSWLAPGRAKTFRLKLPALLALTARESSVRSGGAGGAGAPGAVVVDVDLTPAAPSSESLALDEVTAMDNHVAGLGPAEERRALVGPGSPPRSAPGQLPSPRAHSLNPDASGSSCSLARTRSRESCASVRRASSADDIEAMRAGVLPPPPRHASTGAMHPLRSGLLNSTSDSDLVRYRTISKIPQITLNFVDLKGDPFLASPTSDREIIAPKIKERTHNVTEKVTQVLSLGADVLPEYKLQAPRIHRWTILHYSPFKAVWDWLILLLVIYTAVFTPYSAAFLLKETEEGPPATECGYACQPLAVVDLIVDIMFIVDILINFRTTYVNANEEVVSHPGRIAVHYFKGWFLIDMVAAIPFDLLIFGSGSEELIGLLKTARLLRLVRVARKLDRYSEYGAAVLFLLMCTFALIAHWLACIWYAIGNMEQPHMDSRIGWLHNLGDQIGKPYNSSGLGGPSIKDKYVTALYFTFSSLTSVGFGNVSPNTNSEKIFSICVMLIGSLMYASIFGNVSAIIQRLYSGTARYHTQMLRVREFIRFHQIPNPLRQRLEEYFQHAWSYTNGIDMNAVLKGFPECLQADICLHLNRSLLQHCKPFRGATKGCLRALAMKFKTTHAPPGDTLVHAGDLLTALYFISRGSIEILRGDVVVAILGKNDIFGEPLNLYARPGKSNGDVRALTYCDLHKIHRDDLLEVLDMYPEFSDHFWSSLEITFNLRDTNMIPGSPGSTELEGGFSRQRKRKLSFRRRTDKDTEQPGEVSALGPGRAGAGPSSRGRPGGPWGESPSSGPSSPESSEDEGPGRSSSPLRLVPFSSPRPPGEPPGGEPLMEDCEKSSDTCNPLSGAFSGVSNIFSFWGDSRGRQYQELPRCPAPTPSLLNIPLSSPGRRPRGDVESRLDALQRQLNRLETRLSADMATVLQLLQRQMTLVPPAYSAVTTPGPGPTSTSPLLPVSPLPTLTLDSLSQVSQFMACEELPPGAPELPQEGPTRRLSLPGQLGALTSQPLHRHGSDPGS

Compound	hERG current change (%, negative = inhibition) at 1uM [%]
CCOc1cc(/C=N/n2c(C)nnc2C)ccc1O	12.6
CCc1nc(Nc2ccccc2O)c2oc3ccccc3c2n1.Cl	8.96
CCN(CC)Cc1c(C(=O)N/N=C(\C)c2ccncc2)nnn1-c1nonc1N	-39.7
CC(C)CNC(=O)C1CCN(c2ccc(S(=O)(=O)N3CCOCC3)cc2[N+](=O)[O-])CC1	-9.02
CC1(C)Cc2ccccc2C2=C(C(=O)N3CCCCCC3)C(=O)C(=O)N21	11.5
CCOc1cc(C(=O)CCC(=O)OCC(=O)N2c3ccccc3NC(=O)C2(C)C)ccc1O	-0.0872
Cc1cccc(NC(=O)CN2C(=O)S/C(=C\c3cc(C)n(C)c3C)C2=O)c1	0.701
CCC1CCCCN1S(=O)(=O)c1ccc(NC(=O)c2cccs2)cc1 (stereo not shown)	11.5
COc1ccccc1N1CCN(CC(=O)Nc2ccc(C)c(F)c2)CC1	3.75
Cc1cc(OCC(=O)N[C@@H](Cc2ccccc2)c2nc3ccccc3[nH]2)ccc1Cl	7.57
CC1CCN(S(=O)(=O)c2ccc(Cl)cc2Br)CC1	4.97
CC1CC(C)(C)NC(=S)N1CC(=O)NCc1ccc(F)cc1 (stereo not shown)	6.39
O=C(N/N=C/c1cc2c(cc1Br)OCO2)c1cccnc1	15.1
COc1cc(NC(=O)CN2C(=O)C(c3ccccc3)=NC23CCCCCC3)cc(OC)c1	25.4
O=C(Nc1ccccc1)c1ccc(C(=O)Nc2ccccc2)nc1	13.7
Cc1ccc(C(=O)NCC(=O)N2CCN(S(=O)(=O)c3cccs3)CC2)s1	7.92
Cc1ccc(S(=O)(=O)N(Cc2ccc(F)cc2)C(=O)N2CCN(C)CC2)cc1	13.8
Nc1nnc(CSCc2ccc(Cl)cc2Cl)s1	13.4
COc1cccc(CN2CCN(Cc3ccccc3C(F)(F)F)CC2)c1	13.8
CCOc1ccc(CNC23CN4CN(CN(C4)C2)C3)cc1	1.08
O=C(CN1CCN(Cc2ccc3c(c2)OCO3)CC1)Nc1ccc(F)cc1	-82.6
C#CCOCCOCCOCCNc1nc(N2CCN(C(=O)[C@H](C(C)C)n3cc(CCO)nn3)CC2)nc(N2CCN(C(=O)[C@H](C(C)C)n3cc(CCO)nn3)CC2)n1	13.4

Compound	hERG current change (%, negative = inhibition) at 1uM [%]
CC(C)n1c(O)c(/C=C2\C=NN=C2c2ccccc2)sc1=S	12.1
Cc1ccccc1-c1nc(CS(=O)(=O)CC(=O)NC2CCCC2)c(C)o1	16.9
O=C(CCC(=O)Nc1ccc(Br)cc1)N/N=C/c1ccccc1F	10.8
COc1ccc(O)c(C2=Nc3ccccc3N=C(c3ccccc3)C2)c1	4.29
COc1ccc(OCCNC(=O)c2ccccc2OCC(=O)Nc2ccc(NC(C)=O)cc2)cc1	-4.32
CC(C)Cn1c(SCC(=O)c2c(N)n(C)c(=O)n(C)c2=O)nc2ccccc21	9.61
CCOc1ccc(-c2[nH]ncc2Oc2ccccc2OC)c(O)c1	8.33
CCN(CCCNC(=O)c1cc2c(-c3cccc(OC)c3)nn(C)c2s1)Cc1ccccc1	3.66
Cc1ccc(/C=N/NC(=O)c2ccncc2)cc1	12.5
COc1cccc(CNC(=O)c2ccc(C)c(S(=O)(=O)N3CCOCC3)c2)c1	2.8
COc1cccc(NC(=O)CSc2nnc(-c3ccoc3C)n2CC2CCCO2)c1 (stereo not shown)	11.9
C#CCOc1nc(Nc2cccc([N+](=O)[O-])c2)nc(OCC#C)n1	-4.7
COc1cccc(CN2CCN(C(=O)c3cccc4ccccc34)CC2)c1OC.O=C(O)C(=O)O	7.2
Clc1ccccc1-c1nc(-c2ccncc2)no1	12
O=C(CN1C2CCCC1CC(NC(=O)c1ccccc1)C2)Nc1ccccc1C(F)(F)F (stereo not shown)	12.3
Cc1ccc(C23CC4CC(CC(NC(=O)NC(C)(C)CO)(C4)C2)C3)cc1	4.41
COCCCNC(=O)c1cc2c(-c3ccc(Cl)cc3)nn(C)c2s1	13.3
COc1ccc2c(c1)O[C@H](c1ccc3c(c1)OCO3)[C@@H](OC(=O)N[C@H](C)C1CCCCC1)C2=O	-0.286
Cc1cccc(NC(=O)CN2C(=S)NC(C)(C)CC2C)c1C (stereo not shown)	10.9
COc1ccc(CC(=O)NC(C)c2nnc(SCC(=O)Nc3ccccc3F)n2C)cc1 (stereo not shown)	8.61
CC(=O)c1ccc(NC(=O)COc2ccccc2C(=O)Nc2ccccc2)cc1	10.3
O=S(=O)(c1ccc(Cl)cc1)c1cc(O)ccc1O	11.8

Compound	hERG current change (%, negative = inhibition) at 1uM [%]
COc1ccc(C2CC(=O)c3cnc(NC(=O)c4ccccc4)nc3C2)c(OC)c1 (stereo not shown)	-2.79
CC1=NN(c2ccccc2)C(=O)/C1=C\c1cc(C)n(C)c1C	12.2
CCOc1ccccc1NC(=O)N1CCC(n2nnc3cc(C)ccc32)CC1	-0.424
CCOc1ccc2ccccc2c1C1NC(=O)NC(C)=C1C(=O)OCCOC (stereo not shown)	13.7
CCOc1ccc(NC(=O)CC(Cc2cc(C)cc(C)c2)C(=O)O)cc1 (stereo not shown)	3.96
O=C(Oc1ccccc1N1C(=O)C2CCCCC2C1=O)c1ccccc1F (stereo not shown)	2.76
CN(c1ccccc1)S(=O)(=O)c1ccc(-c2ccccc2)cc1	12.8
COc1ccc([N+](=O)[O-])cc1C1NN=C(c2cccc3ccccc23)S1 (stereo not shown)	-0.05
CCOC(=O)C(NC(=O)Nc1ncccn1)(Oc1ccccc1)C(F)(F)F (stereo not shown)	-5.94
Cc1nn(S(=O)(=O)c2ccc(C(C)(C)C)cc2)c(C)c1S(=O)(=O)N1CCOCC1	12.5
CC(C(=O)Nc1ccccc1)c1ccc(-c2ccccc2)c(F)c1 (stereo not shown)	4.24
O=C(c1ccccc1)N1CCN(C(=O)C23CC4CC(CC(C4)C2)C3)CC1	1.28
O=C(COc1nc2ccccc2nc1N1CCOCC1)Nc1ccc(S(=O)(=O)N2CCCC2)cc1	5.77
CC(=O)OCC1OC(Nc2cccc(C)c2)C(OC(C)=O)C(OC(C)=O)C1OC(C)=O (stereo not shown)	-0.217
CCOC(=O)c1c(C)[nH]c(C(=O)COC(=O)c2ccc(F)c(S(=O)(=O)N3CCOCC3)c2)c1C	14.4
O=C(COC(=O)/C=C/c1ccc(Cl)cc1)NCCN1C(=O)CSC1=O	5.65
CN(C)CCNC(=O)c1ccc(Cl)s1	-8.78
COC(=O)c1ccc(CSC2=NCCS2)cc1	6.73
CCOc1ccc(CCNC(=O)C(O)c2ccccc2)cc1 (stereo not shown)	6.82
O=C(COc1ccc(Cl)cc1Cl)NCCCCc1ccccc1	20.3
COc1ccccc1C(=O)NCCC(=O)Nc1ccc(S(=O)(=O)N2CC(C)CC(C)C2)cc1 (stereo not shown)	13.6
Fc1ccc(-[n+]2nc(Nc3ccccc3)sc2-c2c(Cl)cccc2Cl)cc1.[Cl-]	-2.28

Compound	hERG current change (%, negative = inhibition) at 1uM [%]
COc1ccc(NS(=O)(=O)c2ccc(OCC(=O)N3CCOCC3)cc2)cc1	10.5
CCc1ccccc1-n1c(SCC(=O)NC)nnc1-c1cccnc1	20.3
Cn1c(=O)c2c(nc(SCC(=O)NCc3ccco3)n2C)n(C)c1=O	3.4
CCOc1nc2cnccc2n(CC(=O)Nc2cccc(C)c2C)c1=O	4.31
CC1CCCN(C(=O)CN2CCN(C(=O)c3ccco3)CC2)C1 (stereo not shown)	9.98
COc1ccc2c(c1OC)CN(C)CCc1cc3c(cc1C(O)C2)OCO3 (stereo not shown)	-0.22
O=[N+]([O-])c1cccc(S(=O)(=O)N2CCN(S(=O)(=O)N3CCOCC3)CC2)c1	17.3
Cc1ccc(-n2c(SCC(N)=O)nnc2-c2ccco2)cc1	10.4
Cc1ccc2cccc(S(=O)(=O)N3CCN(c4cccc(Cl)c4)CC3)c2n1	6.54
COc1cccc(NC(=O)CCNC(=O)c2ccccc2Cl)c1	11.2
Cc1c(-c2ccn[nH]2)cc(NC(=O)c2ccc(Cl)cc2)c(=O)n1N	21.2
COc1ccc(NC(=O)CSc2nc3ccccc3n2-c2ccccc2)c([N+](=O)[O-])c1	6.61
Cc1cccc(N2C(=O)CN(Cc3cccs3)C2=S)c1	7.77
CC(C)CNC(=O)c1cccc(NC(=O)Cc2ccc(Cl)cc2)c1	12.8
CC(C)(C)OC(=O)NCCCCCc1cn(CC(=O)NCCCCCCCCCCC(=O)N2CCN(C(=O)OC(C)(C)C)CC2)nn1	16.8
CCc1cc2c(NCCN3CCCCC3)ncnc2s1.Cl	-55.9
CCOC(=O)c1c(C)[nH]c(C(=O)COC(=O)CSC)c1C	8.31
Cc1ccc2c(c1)N(C(=O)CCC(=O)N1CCN(c3cccc(C)c3C)CC1)CCO2	8.19
O=C1CCC(=O)N(O)CCCCCNC(=O)CCC(=O)N(O)CCCCCNC(=O)CCC(=O)N(O)CCCCCN1	3.08

— PMC4336329 (PLoS ONE, 2015)
